# In the supplement of paper PMC3334620:
# The full ranking holds about 33,000 sequences; the median of “E-score (-0.5 to 0.5)” is about -0.012, and the highest 2% start at about 0.27. The list shows a part of the results.
# Biological target: T1, Vhr1 (UniProt P40522)
# T1 sequence: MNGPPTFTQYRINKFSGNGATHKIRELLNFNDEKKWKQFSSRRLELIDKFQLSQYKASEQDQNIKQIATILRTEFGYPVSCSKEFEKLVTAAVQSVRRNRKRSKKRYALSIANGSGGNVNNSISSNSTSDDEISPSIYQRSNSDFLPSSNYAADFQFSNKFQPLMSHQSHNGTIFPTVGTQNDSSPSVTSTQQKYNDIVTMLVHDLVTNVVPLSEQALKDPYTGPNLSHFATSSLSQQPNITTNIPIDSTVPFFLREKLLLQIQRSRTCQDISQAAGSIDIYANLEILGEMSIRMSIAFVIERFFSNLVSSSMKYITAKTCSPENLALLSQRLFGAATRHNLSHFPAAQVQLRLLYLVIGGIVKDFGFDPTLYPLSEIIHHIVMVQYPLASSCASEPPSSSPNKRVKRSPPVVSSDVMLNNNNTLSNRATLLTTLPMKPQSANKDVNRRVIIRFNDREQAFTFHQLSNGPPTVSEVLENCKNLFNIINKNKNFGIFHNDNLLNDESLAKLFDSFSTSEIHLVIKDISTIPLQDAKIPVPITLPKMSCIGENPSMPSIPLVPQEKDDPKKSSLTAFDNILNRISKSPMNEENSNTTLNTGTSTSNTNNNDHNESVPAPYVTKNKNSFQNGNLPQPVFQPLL
# Assay: PBM E-score (8-mer binding enrichment) (E-score (-0.5 to 0.5)); higher = stronger / more preferred TF binding; most listed sequences are background and not binding sites
# Conditions: protein concentration: 200 nM; construct: GST-full length
# Description: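 Universal 'all 10-mer' protein binding microarrays (Agilent AMADID 015681) probed with GST-tagged S. cerevisiae TFs (full-length or DBD) made by in vitro transcription/translation (PURExpress), about 100-200 nM. Bound TF was detected with fluorescent anti-GST. Each ungapped 8-mer (which stands for itself and its reverse complement) is scored by the PBM enrichment score (E-score), a modified Wilcoxon-Mann-Whitney statistic from -0.5 to +0.5, computed with the Universal PBM Analysis Suite. Scale: above 0.35 generally sequence-specific binding.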
row,Sequence,PBM E-score
1,CGGACATA,-0.00426
2,ATACGGCC,0.0223
3,AAACGCAA,0.00869
4,GTGCTCGA,-0.135
5,GTGTGGTA,-0.0123
6,CGCAATAC,0.268
7,GAGCATCC,-0.183
8,AGTGCAAC,0.0257
9,CTCGACAC,0.0634
10,CTATTGGA,-0.0419
11,CTAGGGAA,-0.156
12,CCCAGTTA,-0.039
13,CACATGTA,0.262
14,ACCGCCCG,-0.058
15,CTGTATTA,0.119
16,AGTCTCAT,0.135
17,CGTTGGTA,0.0442
18,GACTTTGA,-0.204
19,CCCAGTGA,0.0456
20,ATAATATC,0.0835
21,AAGTCGGG,-0.112
22,TATTAGCA,0.135
23,CCGTAGGC,-0.0447
24,GACAGCCC,-0.0309
25,ACATGCAC,0.0124

row,Sequence,PBM E-score
1,GGATAGTA,0.22
2,CTGATTAC,0.278
3,GTCACCGA,0.256
4,ACGATTCA,0.112
5,AGGGTAAT,0.148
6,GGCCGACC,-0.168
7,TATGCAAA,-0.12
8,AAATGCTA,0.00222
9,AACGGGCA,-0.194
10,AGAATATA,-0.0382
11,AATGCATC,-0.0108
12,TCCTCAAA,-0.133
13,CGCTCCCC,-0.16
14,CAGCTTGA,0.0883
15,AGTCTAAG,-0.0818
16,AGTACATA,0.156
17,GCAGTTCC,-0.059
18,ATTCTCAA,0.122
19,AGGTTAAA,-0.0835
20,CGAGGGCG,-0.11
21,ACACAGAC,0.25
22,ATATATGG,0.218
23,ACCATATC,0.193
24,AAAAAGCT,-0.231
25,CTCACTAC,0.033

row,Sequence,PBM E-score
1,AATTAGAG,-0.144
2,CCTCGTCA,0.17
3,ACTCAGTG,0.245
4,CTAGTTGA,0.202
5,CCCTGTAA,-0.13
6,ACGGATAA,0.109
7,CCACTTCC,0.123
8,AGTTTGAC,-0.0328
9,ATCAAGAC,0.0901
10,GAAACACA,0.0985
11,GACCCATC,0.188
12,CGCGGAAA,-0.0658
13,CAGCGACA,-0.0517
14,CTGCTGCA,0.0624
15,CGCAGAAC,0.0458
16,CATTTCGG,-0.202
17,CAAAGATG,-0.0482
18,TCCTCGCA,0.0367
19,CCATCCTC,0.0474
20,AGTCCTGG,0.00405
21,AACTTTGA,-0.0541
22,ACCCGTCG,-0.216
23,AGGAAAGA,-0.121
24,CGCATCTC,-0.0205
25,AGCACTCG,0.047

row,Sequence,PBM E-score
1,ACAGGTTG,0.0217
2,CCGTTTCA,-0.116
3,GATTGGAA,-0.0275
4,GATACTAA,0.18
5,AAGTCATA,0.316
6,AGAGGGGA,-0.129
7,GTCTCACA,0.177
8,AACCGGCG,0.225
9,ATGGAAAG,-0.109
10,GCAACCGC,-0.117
11,ACGCAAGA,-0.0431
12,CTCTACGA,-0.156
13,TACATAGA,0.0658
14,AGCCTCCG,-0.0751
15,CCACGCTA,-0.246
16,CAGTGTCA,0.113
17,CACGAAGA,0.24
18,ATGTCATC,0.0412
19,CAACAGCC,-0.132
20,CCGGTACA,0.00788
21,AGTGCCAG,-0.121
22,ACGTAGTA,-0.102
23,ACGGGCGA,0.0368
24,ACTGATGG,0.0219
25,ACAGGTGC,-0.067

row,Sequence,PBM E-score
1,ATCTTCAA,-0.0741
2,AATATGAG,-0.0304
3,AAGGAATG,0.00578
4,GACGAATA,0.117
5,CGTACAGA,-0.235
6,AGGGCATG,-0.0187
7,AGCCTACA,-0.0947
8,ACCGTGAA,-0.115
9,GGGCCTGA,-0.21
10,CACTCGCC,0.147
11,ACACGCTC,0.163
12,GGGGCGCA,0.0714
13,ACATTGAA,0.00322
14,ATCTAGCC,-0.136
15,CAGACTCG,0.0994
16,ACCTCAGC,0.0177
17,CTTGCCGA,-0.0901
18,CCGCACCG,0.072
19,ATTAGCTC,-0.0265
20,ATAACCTA,0.0304
21,GTCTGCAA,-0.216
22,AGGGGATC,-0.177
23,ATTGTCAG,0.0757
24,AGCGACCC,0.073
25,AGATAAGG,-0.108

row,Sequence,PBM E-score
1,AGGTATAT,0.0892
2,ACAAGCCT,0.00748
3,TAGTGACA,0.157
4,GGTAGCTA,0.00361
5,GAGAGACA,0.0226
6,CGTAATCC,-0.104
7,ACTGTACC,0.0464
8,AGCCGCAG,-0.122
9,AAGCATTC,-0.184
10,ATTCCGAG,0.0199
11,CGGGGACC,0.146
12,TTAAGTAA,-0.211
13,CTAAGGAC,-0.0588
14,ATTTATGC,-0.107
15,GACAAAAC,0.0548
16,ACGCTTAG,-0.291
17,AATCGTCT,0.0771
18,AGACTACA,0.17
19,CAGGTTCG,-0.0112
20,AGTGTATG,0.0962
21,AGGCGTCA,-0.227
22,CTAAGGTA,-0.00806
23,ACTTGTCC,-0.145
24,ATTAGCGA,0.142
25,ATTACATC,0.0987

row,Sequence,PBM E-score
1,CGGAGGCC,-0.089
2,CACTGGCA,0.0257
3,TCATACAA,0.166
4,CCAGCTCG,0.161
5,ATATTCTG,-0.186
6,CTATTGAA,-0.147
7,AATACGTC,-0.096
8,CTTACGCA,-0.179
9,AAAGAGGT,-0.0464
10,ACCACTAT,0.131
11,AAGGGATT,-0.25
12,ACTGAGGA,0.0736
13,ACCCAGCG,0.106
14,ATTTAGCC,-0.0477
15,CCATTTAC,-0.0973
16,TGCATGAA,-0.0166
17,CCACTAAC,0.0211
18,CACCGTCG,-0.0456
19,AGCAGATA,-0.0255
20,CTTGCATA,-0.119
21,GACTCAAC,0.42
22,ATTTTGAA,-0.159
